# Over roughly 4,500 sequences, “median log2 fold change of GCK-ALFA target abundance (FLAG IP / Myc IP barcode read proportion)” has its median near 0.078; the lowest 2% begin near -0.6. The list shows a part of the results.
# B1: GBRAP_9_7115 (protein)
# chain: MLVDPEKLKAAVEEAEKSLKEFAEDIEDEKVAEIVEKAIKEMKALTEIEGITLEELEERLDEIVDKATEEARKTVSPEIAKALEAELLTEREAILEAVEE
# B2: GBRAP_160_4348 (protein)
# chain: MEAAEELIEKVREATDRVIAAIDEVSVEQAAVIAAGEFGAVAMEAAEDERYSDEMVDVVVDAMDEIIAFLKANADASPEELKAGIREITDKAIERLKEIA
# B3: GBRAP_11_2693 (protein)
# chain: EKEKLKKGAELAEELAKVLEKLLEEGVDNEELLKKAKELLEELEKLTKEYGDEGNKKLTEILKELFEKALEDKENAEKYVQEALAAARVLAGNYLLEIEE
# B4: GBRAP_35_5571 (protein)
# chain: DFDEETVEMLIATIEDLTLAVPDMPLPDAVAAALSLARAAEELVEELKDNPELLKRIAEALKKLLAAVKAHYGDSPEAKEAAKKIEEVIKKAEELAKKAE
# B5: GBRAP_160_4825 (protein)
# chain: SETLKKAKELLEETVERAIELIEGETPEERAAIVAVELGEFILELSELPEVSDEALDEVAKIADETVDTIKANPDLTLEEIKALLEESKKKIIEALEKHF
# B6: GBRAP_26_5480 (protein)
# chain: IEEKVREILEELKKLLEELLDPELAAAALAEATTIIIEAAEKMEENKDNPEKLKEIVEKAVKELREELKRLGVSEEKAEKIVEKARKGLEELAKLILEES
# B7: GBRAP_14_3779 (protein)
# chain: MEEIEKIIREHGEEIIELLTEIVPEKAEEIEEIVRRVVEETIKRIRETGNALEAAEEGKERLKEEIAKLLADLPEEVRARALAVVEVEFGQAILEIEELL
# B8: GBRAP_125_2996 (protein)
# chain: PTPAQLEDLAALLRALGFDDEDVAEAVALAARHGLRGTLYAALLALGEEETAELVARLTEAQTAAVLRRLRAWLEAHPDATPEEVVARLAELAREELAAA
# B9: GBRAP_166_4890 (protein)
# chain: STEEAIKKIEELAAAAIANIANLTDEELLAVFIDMVEIVEEAGATPELREAAARNFARIVAAAVAAGRDWDRVESLALAAVGDDEELLDAVEAELARMRA
# B10: GBRAP_78_6573 (protein)
# chain: EIEELVDEAIEKLNEAATKLAKLNTPEAQDILDEVVDALSYLLEAEEEGFDLELLEEALKEVEKAIELVKKVPDKEYEEILKLLEEAKKLLKEAIKLVKE
# B11: GBRAP_53_6426 (protein)
# chain: MEARIAELRERARALTERATRADPETRAALVAEIGAVLAELKAAGAPDAEITALAAEIARRLRAAGAPPSALVALARELAELGLEEGTAAVAEEAVEELE
# B12: GBRAP_52_6067 (protein)
# chain: MKKKIEEYAEKITEAVKAGDKEKALELIKKMVEELSLEEIKETLELAAKKVAELGEEEHELFVDILTEAEDILIEKGISEEDALLIVGAAEAALAKAVAA
# B13: GBRAP_52_6111 (protein)
# chain: AAEAARALVEEVLALVRAGREEEARARLRAFARTADEEAVRLFAEALAERARAAAPEDWEAVWRLAEMAEEALLEEGWDEALADDLLARTAAALYERELA
# B14: GBRAP_125_3024 (protein)
# chain: SAEQVVEDLGLIARALGFSEGDVALLMEEARKHGIKGAFIALMLAEGLEKEAELAEKLTEEEVVEVVKEVAAWLKAHPDATPEEVKEKILEVLEKAVAKS
# B15: GBRAP_35_5561 (protein)
# chain: DSDDTIAEMMVNTIEDLTEAVADIDPADLKTITEQLAKSTLEVIKEIKDNKENLERILKALEALKKAIEARGLDDPNLKAAADAVKKAIEEAKKAIKAAE
# B16: GBRAP_78_6626 (protein)
# chain: EVKEKLEKALKKVSEAATLATKSPEEEAIDILDHLIDAFEYIEEAIEKGGDLEELEKALKHLEEAKKLVEAQKDPKYEPLLKLIEEAIKLLKEAIKELKK
# B17: GBRAP_128_3470 (protein)
# chain: GTEEAKEWTREVMEKMETADEEEFRKLATELAERLLTLPVEEVEAAVEVIEEHLPKLSAEKLEILADVLEKAMPKATPEKAALFADVISEALLLAEELEE
# B18: GBRAP_43_5796 (protein)
# chain: SEEWVEGAFDFAETALETPEITDETKARIVVDAVEIAIDEGLLTPEKLKALLEKLRAAVSPEVAVRALEEIEAIAEKEGAPQELLDVIRAARAAAEAELA
# B19: GBRAP_80_6821 (protein)
# chain: LEEELKKALEELKKIDPEIAEIVKEIVEIAKELGVPLEEILRYTKAIVELAKIDKEKALELAKRTLEELKKEKKEGDKEGALAELVDGESEALLKVEELE
# B20: GBRAP_160_4136 (protein)
# chain: KEELEKLIKEIRETAEEALKMIEGETPEEAKVIAKVALGDIVMLVDTSEAVSDEVEDEVGAIADAAAAELDANPDLTVEEIKELLREATEKVVAVLEKEM
# B21: GBRAP_150_3911 (protein)
# chain: DLEELLTVVDTLIDLLEAILDGEWSLLPHAIKVAKHAVELAKELEEEIKKLAEEMLEKLEKAKKLKEEGGKEEEIKKEVKEALELAEKLRKLLEKLIKEK
# B22: GBRAP_80_6811 (protein)
# chain: AEEELERALREIAELDPELAERLRRIVEEARAAGVPVEVLAELARAVLELLKVDKELAREALEELEEELDEELALGDTARVEATLRVHAGQMLLEVEELE
# B23: GBRAP_52_5985 (protein)
# chain: MEEEAKRLAEELVKLMLAGKEEEARKLMEEIAETKSQEFIMLVLEKLAEMAKTATPEEIDAIVDTALMLGDIALEAGFDEAEVDDGEARVAAAAVEALAA
# B24: GBRAP_11_2611 (protein)
# chain: KKEILKKMAELAEEAARVLEELLERGVEDEELRRKARELLEELAELVKKYGDEADKKLVEVALELLREAEEDPENAEEYWRQLLAALRVLSGDYLLDIEE
# B25: GBRAP_117_2599 (protein)
# chain: SEKLKKAEELAKELVELIVEALEKKKELSPEEAKKLEEETLKKATELVEEMLSLVSEEEVQELIAEQLQDLDPETRVEVWILFEEALAEAEEKRKKEEAE
# B26: GBRAP_43_5768 (protein)
# chain: SKELVEGAFETAELMLEDPSISEEQKVKAIIAAMELAADEGYVDEELLKKVVELAGKTLSKESLEKILEAAKKIAKEYPEAKKEFEEAAKLLEKYIKEKE
# B27: GBRAP_80_6780 (protein)
# chain: AEERIEEAIREVEELDPEIAERLRRILEELLAKGASPAVLEAFAEAVEAIAEALKLGLREEAREAVEELEEAAEEEDEANRLALLAGIAGELTLEVEEAE
# B28: GBRAP_52_5889 (protein)
# chain: SLEEAVKKLKEAVKAMAAGDKEKAEAILKEIVENFDEETILAAVEKLAEEVKTKSLEEAEAFYETALLLAEILEEAGKSEEVASYIEAIAGGTLYKIEQK
# B29: GBRAP_11_2875 (protein)
# chain: SKEATKKMLKLAEELAKALKKLLKEGVDNEKLREEIEKLVEELSKLVEEHGDEADKKLVEILKEEVEKSKEDKENAEEYVKHALAIAEVLAGQYLLKLEE
# Target: GABARAP, O95166
# Experiment: median log2 fold change of GCK-ALFA target abundance (FLAG IP / Myc IP barcode read proportion) (log2 ratio); each designed protein is fused to an ALFA-tag nanobody in HEK293 cells to bring the named protein to FLAG-tagged glucokinase (GCK); Myc marks an untargeted standard; higher = target protein stabilised (more abundant)
# Settings: target protein: 3xFLAG-MCP-GCK-ALFA reporter; HEK293 landing pad (RPLP)
# Method in brief: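 Binders fused to an ALFA nanobody were recombined as a library into HEK293 landing-pad cells, which were induced with 2 μg mL^−1 doxycycline and then transfected to express a FLAG-tagged target and a Myc-tagged standard. After 48 h, circular RNA barcodes recovered by anti-FLAG and anti-Myc immunoprecipitation of lysates were reverse transcribed, amplified and sequenced. Each binder's target abundance is the median log2 ratio of FLAG to Myc barcode read proportions, from barcodes present at ≥10^−7 in both replicates, binders carrying ≥3 barcodes per replicate, a 10^−6 pseudocount and pooled replicates.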
# Chain of GABARAP, O95166 (O95166 whole entry, the tested form may be a part): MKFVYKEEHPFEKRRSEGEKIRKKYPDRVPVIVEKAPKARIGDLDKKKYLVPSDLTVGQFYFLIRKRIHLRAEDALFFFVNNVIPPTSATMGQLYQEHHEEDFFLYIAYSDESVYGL
row,Binder,median log2 fold change
1,B1,0.323
2,B2,0.0332
3,B3,0.552
4,B4,0.185
5,B5,0.133
6,B6,0.163
7,B7,0.275
8,B8,-0.199
9,B9,0.302
10,B10,0.0551
11,B11,0.229
12,B12,-0.383
13,B13,-0.131
14,B14,0.229
15,B15,0.135
16,B16,0.0216
17,B17,0.251
18,B18,-0.126
19,B19,0.0645
20,B20,0.0765
21,B21,0.268
22,B22,-0.237
23,B23,-0.163
24,B24,0.0469
25,B25,0.216
26,B26,0.546
27,B27,0.000831
28,B28,0.197
29,B29,0.183
